Data: the supplement of paper PMC10126150
Values marked as one replicate rest on one cluster of the flow cell; about a third of the high ones do not repeat.

Tested on: ATP
Experiment: switch fluorescence ratio, 500 uM ATP over buffer (Cy3 cluster intensity, sum of 5 cycles each) (fold (ratio)); higher = stronger signal-on switching upon ATP binding; sequences stand for … in TCGTCGGCAGCGTCAGATGTGTATAAGAGACAGTTTTTTTTTTTTTTTTTTTTTTTTT…TC
Details: aptamer strand: ATP DNA aptamer (quencher-CACCTGGGGGAGTATTGCGGAGGAAGG + anchor), 100 nM annealed; ATP concentration: 500 uM; one replicate
Method in brief: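 Clusters carrying Cy3-labelled switching strands on a modified Illumina MiSeq flow-cell were annealed to 100 nM quencher-labelled ATP aptamer and imaged in selection buffer. They were imaged again after 15 min with 500 uM ATP at 22 °C, over five buffer/ATP cycles with NaOH stripping and re-annealing in between. For each cluster, the fluorescence ratio is the summed Cy3 intensity of the target cycles divided by that of the buffer cycles, averaged per switch-domain sequence. Clusters outside 100-1000 RFU were left out.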
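Further: ATP exposure 15 min at 22 °C before imaging.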

| Sequence | switch fluorescence ratio |
| --- | --- |
| GATACCCGGG | 1.03 |
| GGGCGCACCG | 1 |
| GGACACGCGG | 1.05 |
| AGGTCTTTCT | 0.975 |
| GGTGCGTCTC | 1.01 |
| TTTCGCATCG | 1.03 |
| TAGTCGGGGT | 0.939 |
| GCAATTATGA | 1.11 |
| TCGGTTTGAA | 1 |
| TCACGTGAGT | 1.03 |
| AAATCGTCTC | 1 |
| TCCCTGGAGA | 1.05 |
| TTTTGCAGTA | 0.995 |
| CCAAGCGTAG | 1.08 |
| AGGGGCCATA | 1.04 |
| TTATATGGCA | 1.01 |
| CTTTATTTTT | 1.04 |
| GCAGGTAATG | 0.974 |
| CATCAGCCGA | 1.13 |
| GCTAATGGG | 1.03 |
| GCTTAACGAC | 1.13 |
| GCGTACCGGG | 1.01 |
| AGAAGTTCAG | 1 |
| GGCGGGGATG | 0.98 |
| CGTATCATGT | 1 |

| Sequence | switch fluorescence ratio |
| --- | --- |
| AGGGGATACG | 1.02 |
| TGGAAATGAA | 1.02 |
| CGGAAGTGGG | 0.975 |
| GCAAACTTCG | 1.09 |
| TGGTCTGAGG | 1.02 |
| TCCGTGTCTT | 0.969 |
| TGACGTTATT | 1.01 |
| CGATGACATA | 0.982 |
| TTATATGTTC | 1.04 |
| GGTCACGCGC | 1.02 |
| AAAGAGAGCG | 1.01 |
| CGAAAGAACG | 1.04 |
| CGTCTGATAA | 1.03 |
| CTGAGGCGAT | 1.01 |
| GAGTTTAATG | 0.994 |
| ACGGCGAAAC | 1.57 |
| TAGACGAAGA | 0.974 |
| AACCCGCGAT | 5.65 |
| GAGCCAGGAT | 0.937 |
| GGTTGCTACA | 0.979 |
| CCATACGATG | 1.06 |
| CGCTTCAC | 2.22 |
| GGAGTGCAAG | 1.01 |
| ACTGGTTGTG | 1.01 |
| GTAACGGTTG | 0.98 |

| Sequence | switch fluorescence ratio |
| --- | --- |
| GCGTCCCATG | 1 |
| GAAAATAAAC | 1.69 |
| ATTCGGTCGG | 0.98 |
| CCGGGGCAGC | 2.24 |
| AGTATGTAGG | 1 |
| CAATCGCATA | 3.15 |
| GGCTAACGCT | 1.4 |
| TGGCACCTAA | 1.05 |
| CGATCAGGC | 1.08 |
| GGGCTCTGCT | 1 |
| ACCGTTAGAC | 1.36 |
| AGGCAGGATT | 1.01 |
| TAACGTAATT | 1.22 |
| TTTCAGAAG | 1.08 |
| GTATGGCTGA | 0.959 |
| TGTTCTAGCT | 1.01 |
| ACTTGGCTTC | 1.03 |
| GTAGCGCAGA | 0.967 |
| CTTTTGGCAA | 1.29 |
| TCATGGGCAG | 1.01 |
| CCAGGGCATT | 1.13 |
| TTGAGTTAGA | 0.985 |
| GTACGGACTA | 1.3 |
| CGGCATGGGA | 1.05 |
| GGCAGGCCAG | 1.06 |

| Sequence | switch fluorescence ratio |
| --- | --- |
| AAGTGTTTGC | 1.05 |
| TGGCTACACT | 0.983 |
| GGGGCCGAAA | 0.963 |
| GACGCTTCGA | 1.13 |
| GCATGTTGTG | 0.991 |
| GAATACTCCG | 1.87 |
| TCGCGCCGCA | 1.14 |
| TTATTACAAC | 0.99 |
| TTTGAGTAG | 0.965 |
| CACATTCAAG | 1.06 |
| GCGCCACTTA | 0.993 |
| GAGGTTAATC | 0.978 |
| GGTTCTGTAA | 1.02 |
| CCTAGGGCTG | 1.02 |
| TCAGGTCTGG | 1.02 |
| AATTAGTGAT | 1.01 |
| TAAACCGACC | 2.94 |
| TTCGTGTTT | 0.995 |
| TTTGACTGTG | 0.969 |
| GGCGTTTGA | 1 |
| ACCGAGGTAG | 1.02 |
| ATGAAAATTC | 0.996 |
| CCCCAAATTG | 1.05 |
| ATAACATTCA | 1.15 |
| AGTCATGGTA | 1.02 |

| Sequence | switch fluorescence ratio |
| --- | --- |
| CATAGTATAC | 1.29 |
| GCTCTATAGA | 1.02 |
| ACTGCAATGT | 1.67 |
| TTATAAGGTA | 1.04 |
| AACATTTCGT | 0.971 |
| GGGGTTCCTA | 0.987 |
| GCACTTGAGC | 1.06 |
| TTAGGTCCCG | 0.99 |
| TGCCCGTAGA | 1 |
| CGGGGCCTGT | 0.983 |
| ACCACACT | 1.32 |
| TCGGTGACAT | 1.01 |
| CCTATTTCAA | 1.1 |
| TTTGAAGACG | 0.991 |
| ATTCGATAT | 1.01 |
| TTGCCCTGCA | 0.966 |
| CGGGAAGGTC | 1.08 |
| TCATGGAACT | 1.02 |
| ACTCGGGGG | 1.07 |
| ATGGTCCTG | 1.01 |
| CAACGATCGG | 1.01 |
| ACAGATGTCT | 0.992 |
| AGGCGCGGCT | 1.09 |
| GCCATATTCT | 1 |
| GTTGCGCATT | 1.08 |

| Sequence | switch fluorescence ratio |
| --- | --- |
| CAGGCGGCCA | 1.01 |
| GGCTTAGAAA | 1 |
| AATGAGTCGC | 1.04 |
| CCATCTTCAC | 1.05 |
| CAACTATTGG | 1.02 |
| CCTACGTTGT | 3.66 |
| AGATTAGACA | 0.971 |
| TTGAATGCG | 0.984 |
| TACATCCGGC | 1.12 |
| TGTGCAGGGT | 0.973 |
| TTGTGTGCTC | 0.996 |
| ATTAGGTGG | 1.08 |
| CAAGCTCGGC | 1.08 |
| AATTCGTGAG | 0.99 |
| AGGAACGAGG | 1 |
| GCAGGCCTGC | 1.07 |
| CCGCGTTTCC | 3.94 |
| CGAGGATTGT | 0.981 |
| CCGGACGGTG | 1.03 |
| CACGGGGCTC | 1.06 |
| GGTATGACAG | 0.969 |
| CGGTGTCCGC | 0.932 |
| ACGTGGTGAG | 1 |
| ATTAAACTGG | 0.925 |
| GGCCCGGATT | 1.05 |

| Sequence | switch fluorescence ratio |
| --- | --- |
| ACTAGCCCTA | 0.969 |
| CCGGGAAACG | 1.04 |
| GTGCAAACGG | 1.03 |
| GCTCTTCGGT | 0.977 |
| GCATGAATTT | 0.994 |
| CGGTACTAG | 0.973 |
| TGGACGCTCT | 1.06 |
| AGTAATACAC | 1.26 |
| TCGGATACGG | 1.01 |
| GGGTCCTAAC | 1.02 |
| ATTTAGGTTG | 0.962 |
| CCCACCTTCA | 1.87 |
| AGGATCAAGG | 0.985 |
| GCCGTTCGTG | 1.03 |
| GTTTGACGGA | 1.02 |
| CAGACGGACC | 1.38 |
| GTTACAGTGT | 1 |
| CATCGGGTTA | 1.08 |
| AATGCTACGT | 1.03 |
| TGGTACAGCA | 0.999 |
| CAGATTCGTC | 0.995 |
| TATCATGACG | 0.976 |
| ATTGGCCACG | 1.25 |
| TACCGGGGCA | 0.987 |
| GGGCAGCTAC | 1.71 |

| Sequence | switch fluorescence ratio |
| --- | --- |
| AACGGGGTTT | 1.02 |
| CAGTTAATTA | 1.01 |
| ACCCGGATC | 1.08 |
| TAATAGAAAC | 0.954 |
| TAATCACGGT | 1.04 |
| GTAAGAGAGC | 1.07 |
| CGTAGACTAA | 0.976 |
| GAATAGGCCA | 0.968 |
| GCGCGTAGAC | 1.13 |
| GCCATGCCAG | 1.05 |
| TGGAGACCCG | 0.991 |
| CGGACCAACT | 1.03 |
| CAACCGTGGA | 1.03 |
| GCCCCGGTCT | 0.977 |
| GTCGTCCAGG | 1.24 |
| GGCGATAGTC | 1.07 |
| GAGCTGGCCC | 0.955 |
| GCTTACGGAC | 1.5 |
| TGTATTTCGG | 0.976 |
| GAGGGCTTGA | 1 |
| ATGCTCGGT | 1.01 |
| GCAAGGGTCT | 1.03 |
| CCCCAGAACG | 1.22 |
| ACGTCTAGAC | 1.05 |
| TAGCACAGTC | 1.02 |
